Results as given in the supplement of paper PMC4604168 (melanoma cell lines).
The list shows a part of the results. Repeats are few or missing, and single values can be far off.

The compounds below were run on LB2518-MEL (assay: cell count relative to DMSO control; melanoma cells; higher = more viable cells). Conditions: library dose: low library concentration; 72 h.
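Further: cell number obtained by counting DAPI-stained nuclei in high-throughput microscope images with image analysis software, screen run in 1,536-well plates.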

Row | Compound | cell count [%]
1 | C[C@@H](Oc1cc(-c2cnn(C3CCNCC3)c2)cnc1N)c1c(Cl)ccc(F)c1Cl [Crizotinib] + C#Cc1cccc(Nc2ncnc3cc(OCCOC)c(OCCOC)cc23)c1 [erlotinib] (first compound 0.2 µM, partner dose 0.8 µM) | 83.5
2 | CNC(=O)c1cc(Oc2ccc(NC(=O)Nc3ccc(Cl)c(C(F)(F)F)c3)cc2)ccn1 [sorafenib] + Cn1c(Nc2ccc(C(F)(F)F)cc2)nc2cc(Oc3ccnc(-c4ncc(C(F)(F)F)[nH]4)c3)ccc21 [CHIR265] (first compound 0.4 µM, partner dose 0.08 µM) | 72.4
3 | C=CCNC1=C2C[C@@H](C)C[C@H](OC)[C@H](O)[C@@H](C)/C=C(\C)[C@H](OC(N)=O)[C@@H](OC)/C=C\C=C(/C)C(=O)NC(=CC1=O)C2=O [Tanespimycin] + CC(=O)c1c(C)c2cnc(Nc3ccc(N4CCNCC4)cn3)nc2n(C2CCCC2)c1=O [palbociclib] (first compound 0.002 µM, partner dose 0.04 µM) | 99.2
4 | CN1CCN(c2ccc3nc(-c4c(N)c5c(F)cccc5[nH]c4=O)[nH]c3c2)CC1 [Dovitinib] + Cc1nc(Nc2ncc(C(=O)Nc3c(C)cccc3Cl)s2)cc(N2CCN(CCO)CC2)n1 [dasatanib] (first compound 0.1 µM, partner dose 0.004 µM) | 76
5 | CN1CCN(c2ccc3nc(-c4c(N)c5c(F)cccc5[nH]c4=O)[nH]c3c2)CC1 [Dovitinib] + C=C(c1ccc(C(=O)O)cc1)c1cc2c(cc1C)C(C)(C)CCC2(C)C [Bexarotene] (first compound 0.1 µM, partner dose 2 µM) | 81.6
6 | CNC(=O)c1cc(Oc2ccc(NC(=O)Nc3ccc(Cl)c(C(F)(F)F)c3)cc2)ccn1 [sorafenib] + CC(=O)c1c(C)c2cnc(Nc3ccc(N4CCNCC4)cn3)nc2n(C2CCCC2)c1=O [palbociclib] (first compound 0.4 µM, partner dose 0.04 µM) | 89.6
7 | C=CCNC1=C2C[C@@H](C)C[C@H](OC)[C@H](O)[C@@H](C)/C=C(\C)[C@H](OC(N)=O)[C@@H](OC)/C=C\C=C(/C)C(=O)NC(=CC1=O)C2=O [Tanespimycin] + OCc1c[nH]c2ccccc12 [Indole-3-carbinol] (first compound 0.002 µM, partner dose 0.8 µM) | 101
8 | CS(=O)(=O)CCNCc1ccc(-c2ccc3ncnc(Nc4ccc(OCc5cccc(F)c5)c(Cl)c4)c3c2)o1 [lapatinib] + Cn1c(Nc2ccc(C(F)(F)F)cc2)nc2cc(Oc3ccnc(-c4ncc(C(F)(F)F)[nH]4)c3)ccc21 [CHIR265] (first compound 0.8 µM, partner dose 0.08 µM) | 65.1
9 | CN1CCN(c2ccc3nc(-c4c(N)c5c(F)cccc5[nH]c4=O)[nH]c3c2)CC1 [Dovitinib] + C=CCNC1=C2C[C@@H](C)C[C@H](OC)[C@H](O)[C@@H](C)/C=C(\C)[C@H](OC(N)=O)[C@@H](OC)/C=C\C=C(/C)C(=O)NC(=CC1=O)C2=O [Tanespimycin] (first compound 0.1 µM, partner dose 0.002 µM) | 81.4
10 | CN1CCN(c2ccc3nc(-c4c(N)c5c(F)cccc5[nH]c4=O)[nH]c3c2)CC1 [Dovitinib] + Nc1cccc2c1CN(C1CCC(=O)NC1=O)C2=O [lenalidomide] (first compound 0.1 µM, partner dose 1 µM) | 84.9
11 | CN1CCN(c2ccc3nc(-c4c(N)c5c(F)cccc5[nH]c4=O)[nH]c3c2)CC1 [Dovitinib] + O=C(O)[C@@H]1[O][Sb](=[O])([O][Sb]2(=[O])[O][C@H]([C@H](O)CO)[C@H](O)[C@H](C(=O)O)[O]2)[O][C@H]([C@H](O)CO)[C@@H]1O [stibogluconate] (first compound 0.1 µM, partner dose 2 µM) | 105
12 | C=CCNC1=C2C[C@@H](C)C[C@H](OC)[C@H](O)[C@@H](C)/C=C(\C)[C@H](OC(N)=O)[C@@H](OC)/C=C\C=C(/C)C(=O)NC(=CC1=O)C2=O [Tanespimycin] + COc1ccc(Cl)c(Nc2nc3ccccc3nc2NS(=O)(=O)c2cccc(NC(=O)C(C)(C)N)c2)c1 [XL147] (first compound 0.002 µM, partner dose 0.8 µM) | 93.3
